Laboratory results: the supplement of paper PMC10126150
Values marked as one replicate rest on one cluster of the flow cell; about a third of the high ones do not repeat.

Tested on: ATP
Experiment: switch fluorescence ratio, 500 uM ATP over buffer (Cy3 cluster intensity, sum of 5 cycles each) (fold (ratio)); higher = stronger signal-on switching upon ATP binding; sequences stand for … in TCGTCGGCAGCGTCAGATGTGTATAAGAGACAGTTTTTTTTTTTTTTTTTTTTTTTTT…TC
Settings: aptamer strand: ATP DNA aptamer (quencher-CACCTGGGGGAGTATTGCGGAGGAAGG + anchor), 100 nM annealed; ATP concentration: 500 uM; one replicate
Summary of the method: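 The fluorescence ratio divides summed target-cycle Cy3 intensity by summed buffer-cycle Cy3 intensity for each cluster and is averaged per switch-domain sequence. Cy3-labelled switching-strand clusters on a modified Illumina MiSeq flow-cell were annealed to 100 nM quencher-labelled ATP aptamer, then imaged in selection buffer and again after 15 min with 500 uM ATP at 22 °C. Five such cycles were run, with NaOH stripping and re-annealing between them, and clusters outside 100-1000 RFU were excluded.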
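Note: ATP exposure 15 min at 22 °C before imaging.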

TTCCATAAAC showed a switch fluorescence ratio of 0.966.
TTGGATTTGA gave a switch fluorescence ratio of 1.
CGGTGTAGCG showed a switch fluorescence ratio of 1.01.
Sequence AATTATGAAA has a switch fluorescence ratio of 1.
AATATTACTT showed a switch fluorescence ratio of 1.04.
With GTAGGCTGGT the switch fluorescence ratio was 1.04.
In the case of TAAATGT, the switch fluorescence ratio is reported as 1.01.
AAGCCTGTAC gave a switch fluorescence ratio of 1.66.
GTGGCTTGGA showed a switch fluorescence ratio of 1.01.
Work on TCAGCCGCGG yielded a switch fluorescence ratio of 1.06.
TAGGAATTGC showed a switch fluorescence ratio of 1.03.
In the case of CGATTTACGA, the switch fluorescence ratio is reported as 1.08.
With TTCAAATGGT the switch fluorescence ratio was 1.23.
Sequence TGGGTAGGAC has a switch fluorescence ratio of 0.973.
For AACACGGTTT, the switch fluorescence ratio was 0.978.
In the case of AATAGCGTCT, the switch fluorescence ratio is reported as 0.971.
TACCCAGCCG showed a switch fluorescence ratio of 1.16.
GCTCGACTGA gave a switch fluorescence ratio of 0.996.
Work on TAAAAGGTAA yielded a switch fluorescence ratio of 1.
For CAGGAATGCA, the switch fluorescence ratio was 0.984.
For GGTGAACA, the switch fluorescence ratio was 0.965.
With CTGTGACCTG the switch fluorescence ratio was 0.989.
For GCCCGGTACA, the switch fluorescence ratio was 0.984.
TTCTGTCGGA showed a switch fluorescence ratio of 0.989.
For CCGATATTGT, the switch fluorescence ratio was 1.01.
Sequence TTACAATAAA has a switch fluorescence ratio of 1.
Work on GGGTCTAGTA yielded a switch fluorescence ratio of 1.01.
CGCTAGTACG showed a switch fluorescence ratio of 1.16.
Sequence CCGGGTCAG has a switch fluorescence ratio of 1.08.
AGCGCTTTCT gave a switch fluorescence ratio of 0.993.
With GTACCTTATT the switch fluorescence ratio was 1.06.
With AAGTTGGCTC the switch fluorescence ratio was 0.999.
GCCAATTTT gave a switch fluorescence ratio of 0.985.
Sequence CTTTTTGCTA has a switch fluorescence ratio of 0.994.
In the case of ATTGGTAGAA, the switch fluorescence ratio is reported as 1.01.
TCAGTCTACT gave a switch fluorescence ratio of 1.04.
Work on TGTTATCCGG yielded a switch fluorescence ratio of 1.03.
ATAGCTCACT was tested, and the switch fluorescence ratio was 0.985.
CCATGACGCA was tested, and the switch fluorescence ratio was 2.1.
For TTAGAGTGAA, the switch fluorescence ratio was 0.978.
TACTTCTCCT showed a switch fluorescence ratio of 1.02.
Sequence CCAAGATTG has a switch fluorescence ratio of 1.
For GCGTGAAGCT, the switch fluorescence ratio was 0.937.
GGTGGTATCC showed a switch fluorescence ratio of 1.04.
GAGTTTATTG was tested, and the switch fluorescence ratio was 1.
With GGCTCACAGA the switch fluorescence ratio was 0.963.
With ATGTGAGTGA the switch fluorescence ratio was 1.03.
With AAACTACCAA the switch fluorescence ratio was 1.09.
CCTTAGCATG was tested, and the switch fluorescence ratio was 2.03.
For CAAGCGGACG, the switch fluorescence ratio was 1.04.
With AGCAGACTT the switch fluorescence ratio was 1.09.
AACGACATCC gave a switch fluorescence ratio of 1.09.
Sequence ATTATGAAAA has a switch fluorescence ratio of 1.04.
TTCGAAGACT showed a switch fluorescence ratio of 1.03.
AAGGTGCTAG was tested, and the switch fluorescence ratio was 1.02.
In the case of TACTGCCTGT, the switch fluorescence ratio is reported as 0.989.
Sequence TTCCGACTGA has a switch fluorescence ratio of 3.44.
In the case of CAGGGGAATT, the switch fluorescence ratio is reported as 1.02.
Work on AAAGTACGCA yielded a switch fluorescence ratio of 1.21.
TTCGGGAATG showed a switch fluorescence ratio of 0.989.
In the case of TTGTGAAGTT, the switch fluorescence ratio is reported as 0.964.
AGTTAAAGTA showed a switch fluorescence ratio of 1.03.
For ATGCGTGATA, the switch fluorescence ratio was 1.02.
In the case of CTAGGTATGC, the switch fluorescence ratio is reported as 1.03.
AACCCTGGGT was tested, and the switch fluorescence ratio was 0.995.
TAAGCGCCCC gave a switch fluorescence ratio of 1.19.
Work on TCATGGTGGC yielded a switch fluorescence ratio of 0.982.
CTACACTCCT gave a switch fluorescence ratio of 1.08.
With ACAAAAGCCA the switch fluorescence ratio was 0.995.
GCTTTTCACA showed a switch fluorescence ratio of 0.949.
With TGGCCATTGC the switch fluorescence ratio was 1.03.
With TCTATGCGGT the switch fluorescence ratio was 1.02.
In the case of GCGTACTAGC, the switch fluorescence ratio is reported as 0.994.
CGGCACAGGG was tested, and the switch fluorescence ratio was 1.15.
AAATCCCTTG gave a switch fluorescence ratio of 1.2.
For GCGTCGACTG, the switch fluorescence ratio was 0.928.
GGAGGTGACT was tested, and the switch fluorescence ratio was 0.948.
Sequence CACTGAGACG has a switch fluorescence ratio of 1.05.
Work on CTCAGTCCCG yielded a switch fluorescence ratio of 0.972.
TTCGGCAGG gave a switch fluorescence ratio of 1.23.
For GAGATAGTGA, the switch fluorescence ratio was 0.991.
Sequence GATGGACTGT has a switch fluorescence ratio of 1.03.
Work on GGGTTACGT yielded a switch fluorescence ratio of 1.03.
Work on TCTCCAGGGT yielded a switch fluorescence ratio of 1.53.
With CGGGGCGCCG the switch fluorescence ratio was 0.984.
TAACCAAATC was tested, and the switch fluorescence ratio was 1.02.
GGTTGTATTC gave a switch fluorescence ratio of 0.958.
Work on CAGTACTATT yielded a switch fluorescence ratio of 1.01.
Work on GGCCATTAAT yielded a switch fluorescence ratio of 0.983.
AAGGCTGGGA showed a switch fluorescence ratio of 1.
TCTGACGTGG gave a switch fluorescence ratio of 1.07.
Work on GGGGCACAGG yielded a switch fluorescence ratio of 1.14.
Sequence GAGTAAATCG has a switch fluorescence ratio of 1.03.
CCATGGACGG showed a switch fluorescence ratio of 1.04.
Sequence GCAGCAAACG has a switch fluorescence ratio of 2.04.
In the case of CAACGCCTTA, the switch fluorescence ratio is reported as 1.
CACGCGCGGA was tested, and the switch fluorescence ratio was 1.
GCGGTTGATC gave a switch fluorescence ratio of 1.02.
For TACTAGGGGG, the switch fluorescence ratio was 0.965.
For AGGCTGGAGC, the switch fluorescence ratio was 1.03.
TGGTCGGCCA was tested, and the switch fluorescence ratio was 1.03.
ACAAAGGAT gave a switch fluorescence ratio of 1.01.
AAATTTTTT gave a switch fluorescence ratio of 0.989.
ATTGCCAATG showed a switch fluorescence ratio of 0.96.
Work on TTCTCAGGAA yielded a switch fluorescence ratio of 1.23.
Sequence GATCTAGGTA has a switch fluorescence ratio of 0.975.
For GAGAGTTTTT, the switch fluorescence ratio was 0.954.
Work on ATGATTTGG yielded a switch fluorescence ratio of 0.99.
AGTTATCCCG showed a switch fluorescence ratio of 1.01.
In the case of AAGGCAGCTG, the switch fluorescence ratio is reported as 0.92.
Sequence TGCATATCG has a switch fluorescence ratio of 1.07.
For CCCTTGAAAT, the switch fluorescence ratio was 1.02.
TACTGTTTAT showed a switch fluorescence ratio of 1.04.
For GAAAAACTTC, the switch fluorescence ratio was 1.07.
GAGCTAGTTG gave a switch fluorescence ratio of 0.991.
GATGCTGAAG gave a switch fluorescence ratio of 0.982.
GGGCCCCGT showed a switch fluorescence ratio of 1.01.
Work on CCTTATGAAG yielded a switch fluorescence ratio of 1.04.
CGCACTTTGG showed a switch fluorescence ratio of 1.
CTGGGTACAA was tested, and the switch fluorescence ratio was 1.01.
GACGGCCAAT showed a switch fluorescence ratio of 1.21.
AAATATAAGA showed a switch fluorescence ratio of 1.03.
In the case of GTGACTCATT, the switch fluorescence ratio is reported as 0.996.
Sequence TGGGTATTTC has a switch fluorescence ratio of 1.03.
GAGATCGATA showed a switch fluorescence ratio of 1.1.
Sequence TGTTTGTACT has a switch fluorescence ratio of 1.02.
Work on TCATTTGATG yielded a switch fluorescence ratio of 0.963.
In the case of CCATTTGGT, the switch fluorescence ratio is reported as 1.04.
With TCCTTAAGGG the switch fluorescence ratio was 1.03.
GACGTTGAAG gave a switch fluorescence ratio of 0.969.
With CTATAGGGCG the switch fluorescence ratio was 1.
CTGTAATTAA was tested, and the switch fluorescence ratio was 1.04.
CACGGTTGCT was tested, and the switch fluorescence ratio was 0.994.
In the case of TTATACCATG, the switch fluorescence ratio is reported as 1.
GGCTTAATCT gave a switch fluorescence ratio of 0.96.
With ATTCAACCCG the switch fluorescence ratio was 1.03.
In the case of TACACGAGTT, the switch fluorescence ratio is reported as 1.05.
In the case of TGGGGGAGAA, the switch fluorescence ratio is reported as 1.01.
CGACTGTAGG showed a switch fluorescence ratio of 1.
AAGGGAGGTG was tested, and the switch fluorescence ratio was 1.04.
For TCGTTGTAAT, the switch fluorescence ratio was 1.04.
GTGACATTCT was tested, and the switch fluorescence ratio was 1.02.
In the case of ATTATGTATA, the switch fluorescence ratio is reported as 1.07.
In the case of GAGTTACACT, the switch fluorescence ratio is reported as 1.
Work on GGAGCGACGA yielded a switch fluorescence ratio of 1.02.
With TGAAGGGCTT the switch fluorescence ratio was 1.01.
AGTGTACAC gave a switch fluorescence ratio of 0.998.
Work on TGAGGAGTTG yielded a switch fluorescence ratio of 1.04.
Sequence CTGCTGGCTG has a switch fluorescence ratio of 1.03.
Work on AGTCCACCAT yielded a switch fluorescence ratio of 1.03.
Sequence AGAGGCGTTC has a switch fluorescence ratio of 1.02.
GACACCGACT was tested, and the switch fluorescence ratio was 1.09.
CCAACACATC was tested, and the switch fluorescence ratio was 1.26.
For GAAACACATA, the switch fluorescence ratio was 0.998.
ATATCCATGA showed a switch fluorescence ratio of 0.991.
Work on GCGCTATTAG yielded a switch fluorescence ratio of 1.23.
CGGGGTGTG was tested, and the switch fluorescence ratio was 0.981.
